Where “and” joins values, the source holds several entries; their conditions need not be identical. Equal entries are not always repeated.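 Each compound was tested at five concentrations against cells in 96-well plates for 48 hours. GI50 = concentration required for 50% inhibition of growth. TGI denotes the concentration required for complete inhibition of growth.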 Peptide text beside a SMILES is read from it. * marks the point of attachment. Palmitoyl = CCCCCCCCCCCCCCCC(=O)*
System: NCI-H322M lung
Test: DTP human tumour cell line panel, 48 h

| Structure (SMILES) | TGI | GI50 |
| --- | --- | --- |
| C[N+](C)(C)CC1CCCC1=O (configuration not stated) | 31 µM |  |
| CC1(C)CC(=O)C2=C(C1)OC(N)=C(c1nc(-c3ccccc3)cs1)C2c1ccc(Br)cc1 (configuration not stated) | > 150 µg/mL | > 150 µg/mL |
| NS(=O)(=O)c1nnc(NS(=O)(=O)C(F)(F)F)s1 | > 100 µM |  |
| COc1cc2c(cc1OCCCCN1CCN(C(=S)SCCC(C#N)(c3ccccc3)c3ccccc3)CC1)N=C[C@@H]1CCCN1C2=O | 3.19 µM | 1.4 µM |
| CCN1CCC(O)(/C=C/c2ccccc2C)C(C(=O)/C=C/c2ccccc2C)C1 (configuration not stated) | 12.5 µM |  |
| C/C=C/C#CC#C/C=C/C=C/C(O)CCO (configuration not stated) | > 23.1 µM |  |
| CC1=NC(=Cc2ccccc2O)C(=O)N1n1c(-c2ccccc2)nc2ccccc2c1=O | > 100 µM |  |
| COC(=O)/C=C(\CC(=O)OC)n1nnnc1[C@@H]1C[C@H](COC(c2ccccc2)(c2ccccc2)c2ccccc2)[C@H]2OC(C)(C)O[C@H]21 | > 100 µM |  |
| NC(=O)C(=CNC(=S)Nc1ccccc1)C(N)=O | > 100 µM |  |
| O=C1c2sccc2-c2cccc3cccc1c23 (tested in a mixture with another compound) | 8.3 µM |  |
| C=C(C)C1Cc2c(c3ccccc3n(C)c2=O)O1 (configuration not stated) | > 100 µM |  |
| O=c1c2cc(S(=O)(=O)O)ccc2nc(COc2ccc(Oc3ccc(Cl)cc3Cl)cc2)n1-c1ccc(Oc2ccc(Cl)cc2)cc1Cl | > 100 µM |  |
| CC1(C)CNCC(C)(OCc2ccccc2)C(=O)NC(C)(C)CNCC(C)(OCc2ccccc2)C(=O)N1 (configuration not stated) | > 10 µM |  |
| COC(=O)CCCCC(=O)c1c(C)[nH]c(/C=C2\N=C(c3ccc[nH]3)C=C2OC)c1C | 12 µM | 3.23 µM |
| COc1ccc(N2C(=O)/C(=C\c3cc(OC)c(OC)c(OC)c3)SC2c2ccccc2)cc1 (configuration not stated) | > 100 µM |  |
| C=CCN1CC(=O)N2[C@@H](Cc3ccc(O)cc3F)C(=O)N(Cc3cccc(N4CC(N5CCN(CC)CC5)C4)n3)C[C@@H]2N1C(=O)NCc1ccccc1 | > 100 µM | 0.0933 µM |
| Nc1nc(Nc2ccccc2)c2[nH]cnc2n1 | > 100 µM |  |
| O=[N+]([O-])c1cccc2nc3ccccc3c(NCCCNc3c4ccccc4nc4cccc([N+](=O)[O-])c34)c12 | 0.293 µM |  |
| c1ccc2c(c1)Nc1ccncc1S2 | 83.8 µM | 19.1 µM |
| Oc1c(I)cc(I)c2cccnc12 | 23 µM | 2.95 µM |
| Cc1ccccc1NC(=O)C(=O)C(C#N)c1ccccc1C (configuration not stated) | > 100 µM |  |
| Fc1ccc(N2C(=S)SC(=Nc3ccccc3)C2=Nc2ccccc2)cc1 | > 100 µM |  |

| Structure (SMILES) | TGI | GI50 |
| --- | --- | --- |
| O=C(c1nc2ccccc2[nH]c1=O)C(O)c1ccccc1 (configuration not stated) | > 100 µM |  |
| CC1(C)OC(=S)N(c2ccccc2)C12C=Cc1ccccc1O2 (configuration not stated) | > 100 µM |  |
| COc1ccc(Oc2cccc(C3C4C(=O)N(c5ccc(C)c(Cl)c5)C(=O)C4ON3C(C(N)=O)c3ccccc3)c2)cc1 (configuration not stated) | > 50 µM |  |
| Clc1cc(Cl)cc(N=C/C=C/Nc2cc(Cl)cc(Cl)c2)c1 | 64.9 µM |  |
| Cc1cn(CCCCC2=NCCCN2)c(=O)[nH]c1=O | > 65.5 µM |  |
| c1cc2nnc1SCCCSc1ccc(nn1)SCCCS2 | > 100 µM |  |
| O=C(/C=C/c1ccc(Oc2cc(C(=O)/C=C/c3ccc(O)cc3)c(O)cc2O)cc1)c1ccc(O)cc1O | 20.8 µM |  |
| CCOC(=O)N1N=C(/C(C)=N/OC)C(C)S1=O (configuration not stated) | > 100 µM |  |
| O=C(O)c1cccc(C(=O)O)c1S(=O)Cc1ccccc1 (configuration not stated) | > 100 µM |  |
| Cc1cc(C)nc(SC2=C(Nc3cc(Cl)ccc3O)C(=O)N(Cc3ccccc3)C2=O)n1 | > 160 µM | 98.1 µM |
| O=C1Cc2c([nH]c3ccc(Br)cc23)-c2cc(O)c(O)cc2N1 | > 100 µM |  |
| NC(=O)C(=O)C1CCC2=C(Sc3ccccc3N2)C1=O (configuration not stated) | > 100 µM |  |
| CC(C)(C)C1=CC(C)(n2[nH]c(=O)n(-c3ccccc3)c2=O)C=C(C(C)(C)C)C1=O | > 100 µM |  |
| CCOC(=O)c1sc2nc(SC)nc3c2c1NCN3c1ccc2c(c1)OCO2 | > 100 µM |  |
| c1ccc(CCc2cccnc2)nc1 | > 100 µM |  |
| CC1=C(CC(=O)c2cccc([N+](=O)[O-])c2)C(=O)c2ccccc2C1=O | > 100 µM | 57.6 µM |
| Oc1cccc2ccc(N/N=C/c3cc(CN4CCOCC4)c(O)c4ncccc34)nc12 | 5.19 µM | 0.108 µM |
| CCc1cccc(C)c1NC(=O)c1sc2nc3c(cc2c1N)C(=O)CCC3 | > 100 µM | 0.676 µM |
| N#CCN1CCn2c1nsc2=S | > 100 µM | > 100 µM |
| O=C(/C=C/c1ccccc1)Oc1ccc(C(=O)/C=C/c2ccc(Cl)cc2)cc1 | > 100 µM |  |
| CCC(=O)C(CCN1CCC2(CCCc3ccccc32)CC1)(c1ccccc1)c1ccccc1 | 22.5 µM |  |
| NS(=O)(=O)c1ccc(-c2cc3ccncc3cc2OCc2ccccc2)cc1 | > 25 µM | > 25 µM |

| Structure (SMILES) | TGI | GI50 |
| --- | --- | --- |
| Cc1cc(C#Cc2ccc(C(C)(C)C)cc2)ccc1-n1c(/C=C/c2ccc(O)cc2O)nc2ccccc2c1=O | 19.6 µM | 6.09 µM |
| O=CNCNCCO | > 100 µM |  |
| [O-]c1c2cc(-[n+]3c(-c4ccccc4)cc(-c4ccccc4)cc3-c3ccccc3)cc1COCCOCCOCCOCCOC2 | > 100 µM |  |
| CN1C(c2ccccc2)CC(=O)C(N)C1c1ccccc1 (configuration not stated) | > 100 µM |  |
| COc1cc(/C=C/C(=O)c2cccc(-n3cc(-c4ccc(Cl)cc4)[nH]c3=O)c2)cc(OC)c1OC | > 100 µM | 12.9 µM |
| CCN(CC)CCCCCCNc1cc(OC)cc2cccnc12 | 5.39 µM | 2.33 µM |
| Cn1cc(C2=C(c3cccc(OC[C@@H](O)CO)c3)C(=O)NC2=O)c2ccccc21 | > 25 µM | > 25 µM |
| O=c1[nH]cc(F)c(=O)n1C1OC(CO)C(O)C1O (configuration not stated) | > 100 µM |  |
| N[C@H](C(=O)O)[C@@H]1CC(Br)=NO1 | > 100 µM |  |
| CC(=O)OCC(=O)O[C@@H]1[C@H]2[C@@H](OC(=O)c3ccccc3)[C@@H](C)C[C@]2(O)[C@H](OC(C)=O)[C@@]2(C)C(OC(C)=O)[C@]1(OC(C)=O)C[C@H]1C(=O)C(C)(C)C[C@@H]12 (some centres not stated) | > 50 µM |  |
| C[C@]12CC[C@@H]3c4cc(OC(F)F)c(OS(N)(=O)=O)cc4CC[C@H]3[C@@H]1CC[C@@H]2O | 29.7 µM | 0.868 µM |
| O=C1OC(C(O)CO)C(O)=C1O (configuration not stated) | > 10000 µM | 3760 µM and > 5940 µM |
| C/C(=N/N=C(\[O-])c1ccncc1)C(F)(F)F.C/C(=N\N=C(/[O-])c1ccncc1)C(F)(F)F.[Ni+2] | > 1 µM | > 1 µM |
| Nc1ccc2c(c1)nc1n2C(c2c(F)cccc2F)SC1 (configuration not stated) | > 100 µM |  |
| O=C(O)/C=C/c1nc2ccccc2c(=O)o1 | > 100 µM |  |
| COc1ccc(OC)c(N(CN2C(=O)CCC2C(=O)O)C(C)=O)c1 (configuration not stated) | > 100 µM |  |
| CC1(C)CC[C@]2(C)CC[C@]3(C)C(=CC[C@@H]4[C@@]5(C)CCC(=O)C(C)(C)[C@@H]5[C@H](O)C[C@]43C)[C@@H]2C1 | 31.5 µM |  |
| C#CCNC(=O)[C@H](CC)[C@H]1CC[C@H](C)[C@H]([C@@H](C)[C@H](O)[C@H](C)C(=O)[C@H](CC)C2O[C@]3(C=CC(=O)[C@]4(CC[C@@](C)([C@H]5CC[C@](O)(CC)[C@H](C)O5)O4)O3)[C@H](C)C[C@@H]2C)O1 (some centres not stated) | > 100 µM | 3.44 µM |
| Cc1cc[n+]2c(c1)-c1cc(C)cc[n+]1CC2 | > 100 µM |  |
| N#Cc1nc(-c2ccco2)oc1N | > 10 µM |  |
| CSC(=S)Nc1cccc(C)n1 | > 100 µM |  |
| CCCCCCCCCCCCCCCC(=O)N1CCCC1C(=O)NCC(=O)NC(Cc1ccccc1)C(=O)NC(C)C(=O)NC(CO)C(=O)NC(Cc1ccc(O)cc1)C(=O)NC(CCCCN)C(=O)NC(CC(C)C)C(=O)NC(CCCN=C(N)N)C(=O)N1CCCC1C(=O)NCC(N)=O (configuration not stated) (Palmitoyl-PGFASYKLRPG-NH2; configuration not given here) | 46.1 µM | 16.8 µM |
